The text below walks through data of the supplement of paper PMC10670038.

The structures appear in SMILES notation. Structures can show the parent of a compound that is named as a salt. ± gives the standard deviation of the averaged measurements. Whole data set: some 2,000 compounds, median “relative cell viability vs DMSO, compound + 0.2 uM CuET” near 1, cut for the lowest 2% near 0.25. The list shows a part of the results.

The assay relates to TE10. The experiment in a line: relative cell viability vs DMSO, compound + 0.2 uM CuET (fraction); TE10 is an esophageal squamous carcinoma line; higher = less cytotoxic. The conditions noted are these: 2 µM; co-treatment: CuET (bis(diethyldithiocarbamate)copper) 0.2 uM; 48 h. On the procedure:
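TE10 ESCC cells (1,000/well, 384-well plates) were treated with Selleck bioactive library compounds at 2 uM combined with 0.2 uM CuET (copper diethyldithiocarbamate) for 48 h. Viability was read by CellTiter-Glo and expressed relative to DMSO wells. Two technical replicates (A, B).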
In the case of `COc1ccc(S(=O)(=O)N(CCO)c2ccccc2CN(C)C/C=C/c2ccc(Cl)cc2)cc1` [KN-93 Phosphate], the relative cell viability turned out to be 1.06 ± 0.14.

Regarding `O=C(Nc1ccccc1Br)N[C@@H]1CCN(c2ccc(C(F)(F)F)cn2)C1`, the relative cell viability stood at 1.09 ± 0.17.

Turning to `O=C(c1ccccc1)c1ccc2n1CCC2C(=O)O` (configuration not stated) [Ketorolac], the relative cell viability came out at 1.06 ± 0.016.

Consider `CCN(CC)CCCC(C)Nc1nc(C)cc(Nc2ccc3nc(C)cc(N)c3c2)n1` (configuration not stated), for which the relative cell viability stood at 1.11 ± 0.029.

Consider `O=C(C[S+]([O-])Cc1ccco1)NC/C=C\COc1cc(CN2CCCCC2)ccn1` (configuration not stated) [Lafutidine], for which the relative cell viability was determined as 0.987 ± 0.017.

Take `C#CCC(Cc1cnc2nc(N)nc(N)c2n1)c1ccc(C(=O)N[C@@H](CCC(=O)O)C(=O)O)cc1` (some centres not stated) [Pralatrexate]: the relative cell viability was 0.421 ± 0.035.

Regarding `N#Cc1c(NC(=O)c2cccc3ccccc23)sc2c1CCCC2` [JNK Inhibitor IX], the relative cell viability was 0.653 ± 0.099.

As to `C=CC(=O)Nc1cccc(Nc2nc(Nc3ccc(OCCOC)cc3)ncc2F)c1`, the relative cell viability amounted to 0.892 ± 0.11.

On to `CCC(=O)Nc1cccc(Oc2nc(Nc3ccc(N4CCN(C)CC4)cc3OC)ncc2Cl)c1`, for which the relative cell viability turned out to be 0.976 ± 0.088.

Turning to `COC(=O)Nc1nc2cc([S+]([O-])c3ccccc3)ccc2[nH]1` (configuration not stated) [Oxfendazole], the relative cell viability came to 0.861 ± 0.1.

As to `O=C1NCCCc2c1oc1ccc(O)cc21`, the relative cell viability was 1.22 ± 0.039.

Consider `COc1ccccc1OCC(O)COC(N)=O` (configuration not stated) [Methocarbamol], for which the relative cell viability came out at 1.03 ± 0.083.

In the case of `Nc1ccn([C@@H]2CS[C@H](CO)O2)c(=O)n1` [Lamivudine], the relative cell viability stood at 1.12 ± 0.031.

As to `CCc1c(Cl)c(O)c(Cl)c(O)c1C(=O)O[C@H]1[C@H](O)[C@H](OC)[C@H](OC/C2=C\C=C\C[C@H](O)/C(C)=C/[C@H](CC)[C@@H](O[C@@H]3OC(C)(C)[C@@H](OC(=O)C(C)C)[C@H](O)[C@@H]3O)/C(C)=C/C(C)=C/C[C@@H]([C@@H](C)O)OC2=O)O[C@@H]1C` [Fidaxomicin], the relative cell viability is 1.1092 ± 0.00057.

Regarding `Cc1cc2c(F)c(Oc3ncnn4cc(OC[C@@H](C)O)c(C)c34)ccc2[nH]1`, the relative cell viability stood at 1.05 ± 0.038.

Take `O=C(O)CSCC(=O)NC1CCSC1=O` (configuration not stated) [Erdosteine]: the relative cell viability amounted to 0.966 ± 0.034.

Turning to `COc1cc(/C=C/C(=O)CC(=O)/C=C/c2ccc(O)c(OC)c2)ccc1O` [Curcumin], the relative cell viability amounted to 0.656 ± 0.023.

For `Cc1cc(O)c2c(c1)C(=O)c1cc(O)cc(O)c1C2=O` [Emodin], the relative cell viability amounted to 0.953 ± 0.1.

In the case of `O=C1NC(=O)/C(=C/c2cccc(C(F)(F)F)c2)S1`, the relative cell viability came out at 1.3157 ± 0.0003.

In the case of `Cn1cc(-c2ccc3nnc(Sc4ccc5ncccc5c4)n3n2)cn1`, the relative cell viability came to 1.02 ± 0.038.

As for `Clc1ccc(Nc2nnc(Cc3ccncc3)c3ccccc23)cc1` [Vatalanib (PTK787) 2HCl], the relative cell viability came to 1.08 ± 0.044.

Regarding `COC(=O)c1ccc2c(C(=Nc3ccc(N(C)C(=O)CN4CCN(C)CC4)cc3)c3ccccc3)c(O)[nH]c2c1` [Nintedanib (BIBF 1120)], the relative cell viability was determined as 1.08 ± 0.085.

Turning to `CCOC(=O)[C@H](CCc1ccccc1)N[C@@H](C)C(=O)N1Cc2cc(OC)c(OC)cc2C[C@H]1C(=O)O` [Moexipril HCl], the relative cell viability amounted to 1.05 ± 0.13.

Regarding `O=c1[nH]cnc2[nH]ncc12` [Allopurinol Sodium], the relative cell viability was 0.947 ± 0.016.

Consider `C[N+](C)(C)CCO.[Cl-]` [Choline Chloride], for which the relative cell viability came out at 1.17 ± 0.17.

Regarding `CN1CCN(C2CCN(C(=O)Nc3cc(Oc4ccc(NC(=O)C5(C(=O)Nc6ccc(F)cc6)CC5)c(F)c4)ccn3)CC2)CC1` [Golvatinib (E7050)], the relative cell viability was 1.22 ± 0.24.

Turning to `C[C@H]1COc2c(N3CCN(C)CC3)c(F)cc3c(=O)c(C(=O)O)cn1c23` [Levofloxacin], the relative cell viability stood at 1.048 ± 0.0098.

For the compound `NC(CO)C(=O)NNCc1ccc(O)c(O)c1O` (configuration not stated) [Benserazide HCl], the relative cell viability amounted to 0.987 ± 0.032.

With `CCCC(=O)OCOC(=O)C1=C(C)NC(C)=C(C(=O)OC)C1c1cccc(Cl)c1Cl` (configuration not stated) [Clevidipine Butyrate], the relative cell viability was 0.966 ± 0.05.

Take `CN1CCN(c2ccc(OC(F)(F)F)c(Nc3ncc4c(n3)-c3c(c(C(N)=O)nn3CCO)CC4)c2)CC1`: the relative cell viability amounted to 0.9685 ± 0.0073.

Consider `CN(C/C=C/C#CC(C)(C)C)Cc1cccc2ccccc12` [Terbinafine HCl], for which the relative cell viability turned out to be 1.1 ± 0.093.

As to `CN(C/C=C/C#CC(C)(C)C)Cc1cccc2ccccc12` [Terbinafine], the relative cell viability came out at 1.09 ± 0.026.

As to `Nc1nc(O)c2ncn(CCC(CO)CO)c2n1` [Penciclovir], the relative cell viability came out at 1.05 ± 0.13.

Regarding `Fc1ccc([C@@H]2CCNC[C@H]2COc2ccc3c(c2)OCO3)cc1` [Paroxetine HCl], the relative cell viability came to 0.487 ± 0.45.

`O=C(/C=C/N1C[C@H]2C[C@@H]1CN2c1ccccn1)c1ccccc1O`: the relative cell viability stood at 1.13 ± 0.2.

As for `O=C(O)CCCC[C@@H]1SC[C@@H]2NC(=O)N[C@@H]21` [Biotin (Vitamin B7)], the relative cell viability turned out to be 1.06 ± 0.16.

Turning to `CCOC(=O)Nc1ccc(NCc2ccc(F)cc2)nc1N` [Flupirtine maleate], the relative cell viability was found to be 1.14 ± 0.014.

Consider `COC(=O)C1=C(C)NC(C)=C(C(=O)OC(C)C)C1c1cccc2nonc12` (configuration not stated) [Isradipine], for which the relative cell viability was 1.04 ± 0.072.

With `O=C(NO)c1ccc(CC(=O)N(CCO)c2ccccc2)cc1`, the relative cell viability stood at 1.056 ± 0.0057.

Consider `Cn1c(Nc2ccc(C(F)(F)F)cc2)nc2cc(Oc3ccnc(-c4ncc(C(F)(F)F)[nH]4)c3)ccc21`, for which the relative cell viability worked out at 0.847 ± 0.035.

Turning to `C[C@H](CCC(=O)O)[C@H]1CC[C@H]2[C@@H]3CC[C@@H]4C[C@H](O)CC[C@]4(C)[C@H]3CC[C@]12C` [Lithocholic acid], the relative cell viability stood at 1.1 ± 0.0019.

As for `CC(=O)SCC(Cc1ccccc1)C(=O)NCC(=O)OCc1ccccc1` (configuration not stated) [Racecadotril], the relative cell viability worked out at 1.07 ± 0.017.

`OCCN1C[C@H](O)[C@@H](O)[C@H](O)[C@H]1CO` [Miglitol]: the relative cell viability amounted to 1.11 ± 0.077.

`CC(C)(O)C1CCC(C)(C2C(O)CC3(C)C4CC(OC5OC(CO)C(O)C(O)C5O)C5C(C)(C)C(OC6OCC(O)C(O)C6O)CCC56CC46CCC23C)O1` (configuration not stated) [Astragaloside A]: the relative cell viability was 1.15 ± 0.069.

With `S=C(NCc1ccc2c(c1)OCO2)N1CCN(c2ncnc3c2oc2ccccc23)CC1` [Amuvatinib (MP-470)], the relative cell viability is 0.943 ± 0.34.

In the case of `CC1(C)CCC2=C(O1)c1ccccc1C(=O)C2=O` [Beta-Lapachone], the relative cell viability came out at 0.246 ± 0.051.

`CC(=O)OCC[N+](C)(C)C` [Acetylcholine Chloride]: the relative cell viability came to 1.003 ± 0.0059.

For `CN(C)[C@@H]1C(=O)C(C(N)=O)=C(O)[C@@]2(O)C(=O)C3=C(O)c4c(O)ccc(Cl)c4[C@@H](O)[C@H]3C[C@@H]12` [Demeclocycline HCl], the relative cell viability was determined as 1.18 ± 0.04.

As for `Cn1cnc([N+](=O)[O-])c1Sc1ncnc2[nH]cnc12` [Azathioprine], the relative cell viability came out at 1.08 ± 0.07.

Consider `CC(=O)Oc1cc2c(s1)CCN(C(C(=O)C1CC1)c1ccccc1F)C2` (configuration not stated) [Prasugrel], for which the relative cell viability was 1.33 ± 0.14.

Regarding `CC(C)C(=O)Nc1ccc([N+](=O)[O-])c(C(F)(F)F)c1` [Flutamide], the relative cell viability came to 1.05 ± 0.082.

`COc1nc(N)nc2c1ncn2[C@@H]1O[C@H](CO)[C@@H](O)[C@@H]1O` [Nelarabine]: the relative cell viability is 1.21 ± 0.043.

With `CN(C)CCCn1cc(C2=C(c3c[nH]c4ccccc34)C(=O)NC2=O)c2ccccc21`, the relative cell viability was 1.13 ± 0.18.

With `O=C(Nc1cccc(Nc2ncc(Br)c(NCCc3cnc[nH]3)n2)c1)N1CCCC1`, the relative cell viability is 1.14 ± 0.11.

As for `COc1ccccc1N1CCN(CCCNc2cc(=O)n(C)c(=O)n2C)CC1` [Urapidil HCl], the relative cell viability stood at 1.01 ± 0.037.

For `CCC(=O)OCC(=O)[C@@]1(OC(=O)CC)[C@@H](C)C[C@H]2[C@@H]3CCC4=CC(=O)C=C[C@]4(C)[C@@]3(Cl)[C@@H](O)C[C@@]21C` [Beclomethasone dipropionate], the relative cell viability was found to be 1 ± 0.083.

On to `O=c1c2ccccc2nc2n1CCc1c-2[nH]c2ccccc12` [Rutaecarpine], for which the relative cell viability is 0.989 ± 0.033.

Consider `O=C(/C=C/C=C/c1ccc2c(c1)OCO2)N1CCCCC1` [Piperine], for which the relative cell viability came to 1.11 ± 0.046.

With `O=C(O)C(S)=Cc1c[nH]c2ccc(F)cc12`, the relative cell viability was determined as 1.3349 ± 0.00087.

As to `C[C@H]1Oc2cc(cnc2N)-c2c(nn(C)c2C#N)CN(C)C(=O)c2ccc(F)cc21`, the relative cell viability turned out to be 1.02 ± 0.11.

On to `C[C@@]1(c2cc(-c3cncnc3)c(F)cc2F)CCSC(N)=N1`, for which the relative cell viability was found to be 0.857 ± 0.14.

In the case of `CCc1cnn2c(NCc3ccc[n+]([O-])c3)cc(N3CCCC[C@H]3CCO)nc12`, the relative cell viability worked out at 0.842 ± 0.12.

As for `O=C1NC(=O)[C@@H](c2cn3c4c(cccc24)CCC3)[C@@H]1c1c[nH]c2ccccc12` [Tivantinib (ARQ 197)], the relative cell viability is 0.834 ± 0.012.

`Cc1cc(C)c(CNC(=O)c2cc(-c3ccc(N4CCN(C)CC4)nc3)cc3c2c(C)cn3C(C)C)c(=O)[nH]1`: the relative cell viability is 1.22 ± 0.035.

`CC(C)(C(=O)NCC(F)(F)C(F)(F)F)C(=O)N[C@@H]1C(=O)Nc2ccccc2-c2ccccc21`: the relative cell viability was found to be 0.895 ± 0.023.

In the case of `O=C1OC(CN2CCOCC2)CN1/N=C/c1ccc([N+](=O)[O-])o1` (configuration not stated) [Furaltadone HCl], the relative cell viability was determined as 1.47 ± 0.051.

As for `Cc1ccc(-c2c(-c3nn(C)c4ncnc(N5CC[C@H](N6CCCCC6)C5)c34)cnn2C)cc1`, the relative cell viability stood at 1.04 ± 0.056.

In the case of `O=C1c2c(O)cc(O)cc2O[C@H](c2cc(O)c(O)c(O)c2)[C@H]1O` [Dihydromyricetin], the relative cell viability was 0.916 ± 0.058.

Regarding `C[C@H]1[C@H](OC(=O)CCC(=O)O)O[C@@H]2O[C@@]3(C)CC[C@H]4[C@H](C)CC[C@@H]1[C@@]24OO3` [Artesunate], the relative cell viability came to 1.06 ± 0.054.

For `CC(NC(=O)Cc1cc(F)cc(F)c1)C(=O)NC1C(=O)N(C)c2ccccc2-c2ccccc21` (configuration not stated), the relative cell viability was 0.97 ± 0.13.

For the compound `CCC(C)n1ncn(-c2ccc(N3CCN(c4ccc(OCC5COC(Cn6cncn6)(c6ccc(Cl)cc6Cl)O5)cc4)CC3)cc2)c1=O` (configuration not stated) [Itraconazole], the relative cell viability is 1.125 ± 0.0015.

With `Cc1cccc(Nc2ccccc2C(=O)O)c1C` [Mefenamic Acid], the relative cell viability is 0.933 ± 0.11.

`COC(=O)[C@H](CCSC)NC(=O)c1ccc(NC[C@@H](N)CS)cc1-c1ccccc1`: the relative cell viability came out at 1.04 ± 0.17.

In the case of `CCOc1cc(N)c(Cl)cc1C(=O)NCC1CN(Cc2ccc(F)cc2)CCO1` (configuration not stated) [Mosapride Citrate], the relative cell viability amounted to 0.865 ± 0.25.

As for `CCCCc1nc(Cl)c(CO)n1Cc1ccc(-c2ccccc2-c2nnn[nH]2)cc1` [Losartan Potassium (DuP 753)], the relative cell viability turned out to be 1.12 ± 0.086.

Turning to `CC1(C)S[C@@H]2[C@H](NC(=O)Cc3ccccc3)C(=O)N2[C@H]1C(=O)O` [Penicillin G Sodium], the relative cell viability was 1.07 ± 0.13.

`Clc1ccc(C(Cn2ccnc2)OCc2csc3c(Cl)cccc23)c(Cl)c1` (configuration not stated) [Sertaconazole nitrate]: the relative cell viability worked out at 0.803 ± 0.1.
